Data: PubChem BioAssay AID504332 (National Center for Advancing Translational Sciences (NCATS), 2011)
The campaign covered roughly 350,000 compounds. About 31,000 (8.9%) were called active. Inconclusive results, whose numbers are uncertain, are shown with a selection of clear calls. The call rests on the fitted dose curve; in most records, active means well fitted inhibition curve with a large enough effect; inconclusive means small, poorly fitted or top-dose-only effect; inactive means no such curve, though single readings can be large or run the other way. Potencies beside an inconclusive call are fits to weak or partial responses and may not hold up.

target: Histone-lysine N-methyltransferase EHMT2 (Homo sapiens) (UniProt Q96KQ7); assay: qHTS Assay for Inhibitors of Histone Lysine Methyltransferase G9a; conditions: G9a H3K9 monomethylation, AlphaScreen, 2 h; activity, negative = inhibition: at 59 µM (top of the series) unless noted; further: nearly all actives have a fitted effect of over 75% in size
Summary of the method: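 Step 1: enzyme (final 20 nM) with compound, 15 min RT. Step 2: substrate peptide 500 nM and SAM 20 uM, 2 h RT. Step 3: anti-H3K9me1 antibody and AlphaScreen beads, 10 min, then plate read.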
On the % scale 0 is the no-effect control and ±100 the full control effect; potency means the concentration at half of the fitted maximal effect; tags describe the fitted curve by direction and shape.

Sequence of UniProt Q96KQ7 (Q96KQ7 whole entry, looked up): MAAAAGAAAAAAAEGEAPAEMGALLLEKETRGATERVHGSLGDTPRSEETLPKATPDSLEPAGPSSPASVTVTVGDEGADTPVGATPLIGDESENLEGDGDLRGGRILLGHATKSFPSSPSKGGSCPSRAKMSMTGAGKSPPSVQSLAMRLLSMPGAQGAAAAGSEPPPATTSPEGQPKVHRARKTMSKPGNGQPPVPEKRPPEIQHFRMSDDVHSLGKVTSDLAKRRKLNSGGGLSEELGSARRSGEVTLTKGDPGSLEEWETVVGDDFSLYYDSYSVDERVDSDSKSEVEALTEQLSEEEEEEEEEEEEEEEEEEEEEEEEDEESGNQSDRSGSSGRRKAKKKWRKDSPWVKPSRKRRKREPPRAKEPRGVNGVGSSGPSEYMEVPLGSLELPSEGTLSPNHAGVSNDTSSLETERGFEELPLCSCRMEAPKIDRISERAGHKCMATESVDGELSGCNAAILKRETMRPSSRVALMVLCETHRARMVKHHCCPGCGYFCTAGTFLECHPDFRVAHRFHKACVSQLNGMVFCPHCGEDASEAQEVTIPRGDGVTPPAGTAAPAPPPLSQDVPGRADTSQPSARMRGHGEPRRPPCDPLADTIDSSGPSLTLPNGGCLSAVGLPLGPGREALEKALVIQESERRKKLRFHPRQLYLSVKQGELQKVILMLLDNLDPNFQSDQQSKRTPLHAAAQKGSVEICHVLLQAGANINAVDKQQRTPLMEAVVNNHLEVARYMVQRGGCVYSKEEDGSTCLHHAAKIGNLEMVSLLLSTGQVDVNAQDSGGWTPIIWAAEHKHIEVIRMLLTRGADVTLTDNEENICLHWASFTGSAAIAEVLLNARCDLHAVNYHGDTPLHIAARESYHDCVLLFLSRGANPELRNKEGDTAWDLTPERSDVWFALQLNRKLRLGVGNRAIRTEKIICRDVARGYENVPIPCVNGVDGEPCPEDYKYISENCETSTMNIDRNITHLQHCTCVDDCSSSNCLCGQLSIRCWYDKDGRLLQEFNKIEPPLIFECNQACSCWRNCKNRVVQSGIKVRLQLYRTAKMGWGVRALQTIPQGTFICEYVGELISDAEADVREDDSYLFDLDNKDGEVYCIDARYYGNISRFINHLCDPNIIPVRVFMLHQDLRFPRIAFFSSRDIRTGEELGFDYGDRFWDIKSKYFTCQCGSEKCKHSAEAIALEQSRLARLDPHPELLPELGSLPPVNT

Compound	Potency	activity, negative = inhibition
CCOc1ccc(Nc2nc(N)c([N+](=O)[O-])c(N3CCN(C)CC3)n2)cc1	active: 79.4 µM	
COc1ccc(NC(=O)CN(c2ccc(F)cc2)S(=O)(=O)c2ccccc2)c(OC)c1	inactive	
CCCc1nnc(NC(=O)CCC(=O)N2CCC(Cc3ccccc3)CC2)s1	inactive	
C=CCOc1ccc(/C=C/C(=O)OCC(=O)NCc2ccco2)cc1	inconclusive: 89.1 µM [inhibitor, single point]	
CCn1c2ccccc2c2cc(/C=N/O)ccc21	inactive	
Cc1ccc(OCc2cc(C(=O)N3CCc4[nH]cnc4C3c3ccccn3)no2)cc1C (stereo not drawn)	active: 70.8 µM	
Cc1ccccc1CNC(=O)C1CCCN(c2nnc(-n3c(C)ccc3C)s2)C1 (stereo not drawn)	inactive	
CCC(C)S(=O)(=O)c1snnc1C (stereo not drawn)	inconclusive: 31.6 µM [inhibitor, single point]	
O=C(N/N=C/c1ccccn1)C(=O)N1CCCCCC1	inconclusive: 0.447 µM [inhibitor, full curve, poor fit]	
Cc1ccc(S(=O)(=O)N2CCN(C(=O)CCc3c[nH]c4ccccc34)CC2)c(C)c1	active: 8.91 µM	
Cc1cc(OCC(=O)NNC(=S)NC(=O)c2ccc(Br)o2)ccc1Cl	active: 31.6 µM	
C#CCOCCOCCOCCNc1nc(N2CCN(C(=O)[C@H]([C@@H](C)CC)n3cc([C@@H](N)CC(C)C)nn3)CC2)nc(N2CCN(C(=O)[C@H](Cc3cc4ccccc4[nH]3)n3cc([C@@H](N)CC(C)C)nn3)CC2)n1	inconclusive: 3.16 µM [inhibitor, single point]	
O=C(CN1CCN(c2cccc(Cl)c2)CC1)Nc1nccs1	active: 39.8 µM	
Oc1nc(Nc2cccc(Cl)c2)sc1/C=C1\C=Nc2ccccc21	inconclusive: 35.5 µM [inhibitor, full curve]	
O=C1CCC/C1=C/Nc1ccc2c(c1)OCO2		inconclusive: -90% [inhibitor]
CCNCc1cc(Cl)cc(OC)c1OC(C)C	inconclusive: 0.631 µM [inhibitor, partial curve, poor fit]	
COc1ccc(CCC(=O)NCc2nc3cccnc3n2Cc2ccc(OC)cc2)cc1	inactive	
COc1ccc(Cl)cc1NC(=O)CSc1nc2ccccc2nc1N1CCCCC1	inactive	
Cc1ccc(NC(=O)Cn2nc(C)c3ccccc3c2=O)c(C)c1	inconclusive: 89.1 µM [inhibitor, single point]	
COc1ccc(N/C=C/C(=O)c2ccc(Cl)cc2)cc1	inactive	
COc1ccc2[nH]c(C(=O)O)c(NS(=O)(=O)c3ccc(F)cc3)c2c1	inconclusive: 89.1 µM [inhibitor, single point]	
O=C(c1ccc2c3c(cccc13)CC2)N1CCOCC1	inconclusive: 14.1 µM [inhibitor, partial curve, poor fit]	
Cc1ccc(S(=O)(=O)CCSc2n[nH]c(=O)n2-c2ccc3c(c2)OCCO3)cc1		inconclusive: -73.3% [inhibitor]
CC(NC(=O)COC(=O)c1cc(NS(=O)(=O)c2ccc(Cl)c([N+](=O)[O-])c2)ccc1O)C1CC2CCC1C2 (stereo not drawn)	inconclusive: 28.2 µM [inhibitor, single point]	
COc1ccc(OCC(=O)N2c3ccc(C)cc3C3CN(C)CCC32)cc1 (stereo not drawn)	inactive	

Compound	Potency	activity, negative = inhibition
O=C(NCC1CCCO1)c1ccccc1NS(=O)(=O)c1ccc(F)cc1 (stereo not drawn)	inconclusive: 12.6 µM [inhibitor, partial curve, poor fit]	
Clc1ccc(CCNC(c2cccc(Cl)c2)c2nnc(-c3ccccc3)o2)cc1 (stereo not drawn)	inactive	
COc1cc(/C=C2/NC(=O)N(Cc3ccccc3F)C2=O)ccc1O	inconclusive: 39.8 µM [inhibitor, partial curve]	
CCC(C)(C)NC(=O)C(c1cccc(OC)c1OC)N(C(=O)CCC(=O)Nc1cc(C)on1)C(C)C (stereo not drawn)	inactive	
CCOc1ccc(/C(O)=C2/C(=O)C(=O)N(CCOCCO)C2c2ccccn2)cc1 (stereo not drawn)		inconclusive: -78.4% [inhibitor]
O=C(CCCCn1c(=O)c2ccccc2n(CC(=O)Nc2cccc(F)c2)c1=O)NCc1ccccc1Cl	inactive	
O=C(Nc1ccccc1N1CCOCC1)c1ccccc1NS(=O)(=O)c1ccc(F)cc1		inconclusive: -53.9% [inhibitor]
CN(Cc1ccccc1)C(=O)c1cc2c(s1)-c1ccc(Cl)cc1SC2	inactive	
Cn1cccc1/C=C1\SC(=S)N(NC(=O)c2ccccc2)C1=O	inconclusive: 35.5 µM [inhibitor, single point]	
O=C(/C=C/NNC(=O)c1ccc(Cl)cc1)c1ccccc1	inconclusive: 79.4 µM [inhibitor, partial curve, poor fit]	
COc1cc(NCc2ccc3nc(N)nc(N)c3c2C)cc(OC)c1OC	active: 10 µM	
COc1ccc(NC(=O)CSc2nc3c(c(-c4cccs4)c2C#N)CN(C)CC3)cc1OC	inconclusive: 1.26 µM [inhibitor, full curve, poor fit]	
O=C(O)CCc1ccc(-c2ccccc2)n1-c1cccc(Br)c1	active: 15.8 µM	
CCc1ccc(Oc2nc3c(C)cccn3c(=O)c2/C=C(\C#N)c2nc3ccccc3s2)cc1	inactive	
CN(C)c1ccccc1C(=O)c1ccccc1N(C)C		inactive: -49.4% [at 2.33 µM]
COc1ccc(C2/C(=C(/O)c3ccc(S(=O)(=O)N4CCOCC4)cc3)C(=O)C(=O)N2CCN2CCOCC2)cc1 (stereo not drawn)	active: 50.1 µM	
COc1cc(OC)c(OC)cc1CNC(=O)c1cc(=O)[nH]c2ccccc12	inactive	
COc1cccc(/C=C/C(=O)OC(C)C(=O)Nc2c(C)n(C)n(-c3ccccc3)c2=O)c1 (stereo not drawn)	inactive	
COc1ccc(NC(=O)c2ccc3c(c2)NC(=O)CS3)cc1	inconclusive: 3.98 µM [inhibitor, single point]	
CCN(c1ccccc1)S(=O)(=O)c1ccc(NCC2COc3ccccc3O2)nc1 (stereo not drawn)	inconclusive: 10 µM [inhibitor, partial curve, poor fit]	
CCOc1ccc(CSCCNC(=S)Nc2ccc(OC)cc2)cc1	inactive	
Cc1ccc(-n2c(Cc3cccn3C)nnc2SCC(=O)NCc2ccc3c(c2)OCO3)cc1		inconclusive: -82.9% [inhibitor]
N#CC1=C(N)OC2=C(CN(Cc3ccccc3)C/C2=C\c2cccnc2)C1c1cccnc1 (stereo not drawn)		inconclusive: -111% [inhibitor]
CN1CCN(c2ccc(C(=O)c3ccccc3)cc2[N+](=O)[O-])CC1	inconclusive: 0.794 µM [inhibitor, full curve]	
COc1ccc(-c2c(=O)n(OC)c3ccccc3[n+]2[O-])cc1OC	active: 31.6 µM	

Compound	Potency	activity, negative = inhibition
O=C(COC(=O)C1CCN(c2ccc(C(F)(F)F)cn2)CC1)Nc1cc(F)ccc1F	inconclusive: 89.1 µM [inhibitor, partial curve, poor fit]	
Cc1ccc(C(CC(=O)O)Nc2nc(N3CCOCC3)nc(N3CCOCC3)n2)cc1 (stereo not drawn)	inconclusive: 79.4 µM [inhibitor, single point]	
Cc1ccnc(NC(=O)CN2C(=O)NC(C)(c3ccc4ccccc4c3)C2=O)c1 (stereo not drawn)	inconclusive: 56.2 µM [inhibitor, partial curve]	
COc1cccc(NC(=O)Cn2cnc3c(oc4nc5c(cc43)CCCC5)c2=O)c1	inactive	
COc1ccc(N2C(=O)CC(N(CCc3ccccc3)C(=O)c3ccccc3)C2=O)cc1 (stereo not drawn)	inconclusive: 70.8 µM [inhibitor, partial curve]	
CCCn1c(SCC(=O)Nc2ccccc2Cl)n[nH]c1=O		inactive: -5.31% [at 12.7 µM]
COc1ccc(NC(=S)Nc2ccc3cn[nH]c3c2)cc1	inconclusive: 50.1 µM [inhibitor, partial curve, poor fit]	
CN(C)CCC(=O)NCC1OCCc2ccccc21 (stereo not drawn)	inconclusive: 89.1 µM [inhibitor, single point]	
CCOCCCNC(=O)CN1C(=O)c2c(c3ccccc3n2C)C1c1ccc(OC)cc1 (stereo not drawn)	inactive	
Cc1ccc2nc3cc([N+](=O)[O-])cc([N+](=O)[O-])c3cc2c1	inactive	
O=C(N/N=C1\CCCc2ccccc21)c1ccccc1Cl	inconclusive: 17.8 µM [inhibitor, partial curve, poor fit]	
NC(=O)c1ccc(NC(=O)Cc2cccs2)cc1	inconclusive: 70.8 µM [inhibitor, partial curve]	
Cn1cc(/C=N/Nc2ccccc2)c2ccccc21	active: 12.6 µM	
CCOC(=O)N1CCN(/[N+]([O-])=N/Oc2ccc([N+](=O)[O-])cc2[N+](=O)[O-])CC1	active: 17.8 µM	
CCn1c(-c2cc(-c3ccc(C)cc3)nc3ccccc23)n[nH]c1=S	active: 8.91 µM	
COc1ccccc1N=C1SC(C(=O)Nc2cccc(Cl)c2Cl)C(N)=C1C(N)=O (stereo not drawn)	inconclusive: 100 µM [inhibitor, single point]	
CCN(CC(=O)Nc1ccc(NC(C)=O)cc1)C(=O)/C=C/c1ccco1	active: 50.1 µM	
Cc1cccc(-n2cnc3cc([N+](=O)[O-])ccc32)c1	active: 11.2 µM	
CCCCCc1nnc(N)s1	inconclusive: 35.5 µM [inhibitor, partial curve, poor fit]	
Cc1cccc2cc(C#N)c(SCC(=O)NNC(=O)Cc3ccccc3)nc12	inactive	
CC(C)(C)OC(=O)N[C@@H](Cc1c[nH]c2ccccc12)c1nnc(SCC(N)=O)o1	inconclusive: 79.4 µM [inhibitor, single point]	
O=C(OCc1ccccc1Cl)c1ccc(-c2nnn(Cc3ccccc3Cl)n2)cc1	inactive	
COCCCNC(=O)c1ccc(CS(=O)(=O)c2ccc(OC)cc2)o1	inconclusive: 89.1 µM [inhibitor, partial curve, poor fit]	
